The text below walks through data of PMC4336329 (PLoS ONE, 2015).

Among all 310,000 compounds or so, about 14,000 (4.5%) showed an effect of 50% or more. Effects have a minus sign here. Some of the results follow.
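Also: peak tail current of the secondary pulse compared with the same well before compound.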

The target of the assay is human ether-à-go-go-related gene (hERG) potassium channel (human, UniProt Q12809). Kind of assay: primary screen, population patch clamp on CHO cells stably expressing hERG.
Chain of human ether-à-go-go-related gene (hERG) potassium channel (Q12809 whole entry, looked up): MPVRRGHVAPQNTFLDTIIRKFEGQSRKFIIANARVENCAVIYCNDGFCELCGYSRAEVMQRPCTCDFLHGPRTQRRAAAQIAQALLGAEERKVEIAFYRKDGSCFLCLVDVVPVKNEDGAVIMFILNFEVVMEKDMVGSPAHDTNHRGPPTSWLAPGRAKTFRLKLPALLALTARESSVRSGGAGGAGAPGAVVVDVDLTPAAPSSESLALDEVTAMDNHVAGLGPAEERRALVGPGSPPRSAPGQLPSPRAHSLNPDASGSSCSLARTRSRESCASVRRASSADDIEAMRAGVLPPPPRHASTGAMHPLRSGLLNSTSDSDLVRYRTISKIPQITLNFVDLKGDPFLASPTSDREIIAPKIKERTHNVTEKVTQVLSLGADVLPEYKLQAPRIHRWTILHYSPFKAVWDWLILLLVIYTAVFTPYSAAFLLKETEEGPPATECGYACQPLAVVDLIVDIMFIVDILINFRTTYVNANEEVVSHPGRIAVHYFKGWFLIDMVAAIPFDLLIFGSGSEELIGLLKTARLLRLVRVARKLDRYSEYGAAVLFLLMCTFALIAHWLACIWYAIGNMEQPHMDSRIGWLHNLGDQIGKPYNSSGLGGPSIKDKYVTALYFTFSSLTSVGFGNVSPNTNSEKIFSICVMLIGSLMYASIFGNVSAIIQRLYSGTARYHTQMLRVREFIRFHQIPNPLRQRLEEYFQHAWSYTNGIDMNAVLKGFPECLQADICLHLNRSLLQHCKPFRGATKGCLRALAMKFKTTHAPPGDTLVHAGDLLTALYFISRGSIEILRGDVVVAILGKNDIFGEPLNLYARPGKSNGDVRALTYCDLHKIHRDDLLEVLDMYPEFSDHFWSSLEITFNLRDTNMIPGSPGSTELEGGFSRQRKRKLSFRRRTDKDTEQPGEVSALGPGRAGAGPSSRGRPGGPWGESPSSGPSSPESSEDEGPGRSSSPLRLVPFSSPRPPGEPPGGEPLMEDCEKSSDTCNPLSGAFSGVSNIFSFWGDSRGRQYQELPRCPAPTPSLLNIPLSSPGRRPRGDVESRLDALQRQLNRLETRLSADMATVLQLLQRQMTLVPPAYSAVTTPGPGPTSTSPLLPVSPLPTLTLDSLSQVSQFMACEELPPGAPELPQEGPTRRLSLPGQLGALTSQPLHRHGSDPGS
Turning to `CC(C)COC(=O)N(C)c1ccc(C(O)(C(F)(F)F)C(F)(F)F)cc1`, the “hERG current change (%, negative = inhibition) at 10uM” value was found to be 6.44%. With `CCOC(=O)c1ccc(NC(=O)COC)cc1` the figure was -9.45%; with `CC1(C)CC2(CC(c3ccc(F)cc3)c3ccc(O)cc3O2)NC(=S)N1` (stereo not drawn), -31.4%. With `S=C(NCCc1ccccc1)NC1CC2CCC(C1)N2Cc1ccccc1` (stereo not drawn) the figure was -35.8%.

`Cc1[nH]c2ccccc2c1/C=N/NC(=O)CNC(=O)Cc1ccccc1`: the “hERG current change (%, negative = inhibition) at 10uM” value was found to be 15.5%.

`CCC1Oc2ccc(C)cc2N(CC(=O)NCCN2C(C)CCCC2C)C1=O` (stereo not drawn): the “hERG current change (%, negative = inhibition) at 10uM” value is -9.64%.

Regarding `Cc1ccc(S(=O)(=O)NCCC(=O)Nc2ccc(Cl)c(Cl)c2)cc1C`, the “hERG current change (%, negative = inhibition) at 10uM” value is reported as 11.9%. In the case of `CC(C)CN1CCN(Cc2ccc(C(F)(F)F)cc2)CC1CCO` (stereo not drawn), the “hERG current change (%, negative = inhibition) at 10uM” value is on record as -56.6%. As for `CCOC(=O)Nc1ccc(NCc2ccc(F)cc2)nc1N.O=C([O-])/C=C\C(=O)[O-]`, the “hERG current change (%, negative = inhibition) at 10uM” value is given as -19.9%. With `Cc1cc(Nc2cc(C)on2)n2ncnc2n1` the figure was -1.14%; with `Cc1nc(C)c(C(=O)NCCC(c2ccccc2)c2ccccc2)o1`, 4.74%; with `CC(C)(C)c1ccc(CSc2nnc(-c3ccccn3)n2Cc2ccco2)cc1`, -14.7%. With `COC(=O)c1c(C(=O)OC)c2cc(C)ccn2c1Cl` the figure was -24.9%. With `CCOC(=O)C1(Cc2cccc(Cl)c2)CCCN(C(=O)C(C)(C)C)C1` (stereo not drawn) the figure was 9.04%; with `CCCCc1nc2sc3c(c2c(=O)[nH]1)CCC3`, 10.3%; with `COc1ccc(C2(C)NC(=O)N(CC(=O)Nc3ccc4c(c3)CCC4)C2=O)cc1OC` (stereo not drawn), -8.71%. Regarding `CC(CCc1ccco1)NC(=O)CCc1nnc2ccc(NCc3ccc(Cl)cc3)nn12` (stereo not drawn), the “hERG current change (%, negative = inhibition) at 10uM” value is reported as -15.3%. Next, `COc1ccc(NC2=NC(=S)N(c3ccc(C)cc3)C23CCCCC3)cc1`: 15.3%. On to `COc1ccc(-n2ncc3c(N4CCC(C)CC4)ncnc32)cc1`, for which the “hERG current change (%, negative = inhibition) at 10uM” value is listed as -12.5%. Next, `CCCCCCn1c(=O)[nH]c2c(c1=O)CCC2`: -3.06%; `CCOC(=O)CNC(=O)N1CCCC(C(=O)c2ccc3c(c2)OCO3)C1` (stereo not drawn): 11.1%; `CCN(c1ccccc1)S(=O)(=O)c1cc2c3c(c1)C(C)C(=O)N3CCC2` (stereo not drawn): -34.7%. With `Cc1ccc2c(c1)C(c1ccncc1)=NNC(c1ccc(F)cc1)=N2`, the “hERG current change (%, negative = inhibition) at 10uM” value is -0.32%. For the molecule `Cc1ccc(C(=O)N/N=C/c2ccc(-c3ccccc3[N+](=O)[O-])o2)cn1`, the “hERG current change (%, negative = inhibition) at 10uM” value is given as -32.5%.

For `CC(C)OCCCn1c(SC(C)C(=O)NCC2CCCO2)nc2cc(Cl)ccc2c1=O` (stereo not drawn), the “hERG current change (%, negative = inhibition) at 10uM” value is -20.6%. With `O=S(=O)(NCC1CCCO1)c1ccc(Br)cc1` (stereo not drawn) the figure was 8.84%; with `Cc1ccc(S(=O)(=O)N2CCOCC2)cc1NC(=O)CNCC1CCCCC1.O=C(O)C(=O)O`, -21.1%; with `CC1(C)Cc2c(sc3ncnc(NN)c23)CO1`, -5.74%.

As to `Cc1ccc(NC(=O)CSc2ccc(-c3ccccn3)nn2)c(C)c1`, the “hERG current change (%, negative = inhibition) at 10uM” value stood at 10.1%. Next, `CSc1ncc(CN2CCCC(C(=O)c3cccc(Cl)c3)C2)cn1` (stereo not drawn): -47.1%; `CC1CC(OC(=O)c2ccccc2)(c2ccccc2)C(C)CN1C` (stereo not drawn): -8.66%; `CCOC(=O)c1c(NC(=O)c2ccoc2C)sc2c1CCC2`: 9.61%.

Consider `Cc1nn(-c2ccc(N3CCOCC3)nn2)c(C)c1CCC(=O)Nc1ccc(F)cc1`, for which the “hERG current change (%, negative = inhibition) at 10uM” value was -9.57%.

Turning to `FC(F)(F)c1cccc(Cn2c3[n+](c4ccc(C(F)(F)F)cc42)CCCCC3)c1.[Cl-]`, the “hERG current change (%, negative = inhibition) at 10uM” value is reported as -17.6%. With `COC(=O)C1=C(O)/C(=C\c2ccc(CNC(=O)C(=O)Nc3ccc(C)cc3)o2)N=C1C` the figure was 20.5%. As to `OC(C#CCCN1CCCCC1)(c1ccccc1)C1CCCCC1` (stereo not drawn), the “hERG current change (%, negative = inhibition) at 10uM” value was -46.3%. With `CCn1c(N2CCN(C(=S)Nc3ccc(OC)cc3)CC2)nc2ccccc21` the figure was -68.3%; with `COc1ccc(C2NC(=O)c3ccccc3O2)c(OC)c1OC` (stereo not drawn), 6.22%. Next, `OC(COc1ccc2cc(Br)ccc2c1)CN1CCN(c2ccccn2)CC1` (stereo not drawn): 1.85%. With `O=C(c1cc2cc(Br)ccc2s1)N1CCOCC1` the figure was -21.7%; with `Cc1cc(C)cc(NC(=S)N2CCC(N(C)CC3CCCO3)CC2)c1` (stereo not drawn), -52%; with `O=C(NCc1ccco1)c1cccc(NC(=O)c2ccco2)c1`, -10.3%. Regarding `Cc1ccc(C(=O)NCc2ccco2)cc1S(=O)(=O)N1CCOCC1`, the “hERG current change (%, negative = inhibition) at 10uM” value turned out to be 0.668%. Next, `Cc1cc(C)cc(OCC(=O)OCC(=O)N(CC(C)C)c2c(N)n(Cc3ccccc3)c(=O)[nH]c2=O)c1`: -4.75%. With `Cc1ccc(C)c(Nc2ncnc(N)c2[N+](=O)[O-])c1` the figure was 19.4%.
